# In all, about 310,000 compounds went through this assay and about 14,000 (4.5%) showed an effect of 50% or more. The effect is printed as a negative number. Some of the results follow.
# Molecular target: human ether-à-go-go-related gene (hERG) potassium channel (human, UniProt Q12809)
# Experiment: primary screen, population patch clamp on CHO cells stably expressing hERG
# 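Note: peak tail current of the secondary pulse compared with the same well before compound.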
# Chain of human ether-à-go-go-related gene (hERG) potassium channel (Q12809 whole entry, looked up): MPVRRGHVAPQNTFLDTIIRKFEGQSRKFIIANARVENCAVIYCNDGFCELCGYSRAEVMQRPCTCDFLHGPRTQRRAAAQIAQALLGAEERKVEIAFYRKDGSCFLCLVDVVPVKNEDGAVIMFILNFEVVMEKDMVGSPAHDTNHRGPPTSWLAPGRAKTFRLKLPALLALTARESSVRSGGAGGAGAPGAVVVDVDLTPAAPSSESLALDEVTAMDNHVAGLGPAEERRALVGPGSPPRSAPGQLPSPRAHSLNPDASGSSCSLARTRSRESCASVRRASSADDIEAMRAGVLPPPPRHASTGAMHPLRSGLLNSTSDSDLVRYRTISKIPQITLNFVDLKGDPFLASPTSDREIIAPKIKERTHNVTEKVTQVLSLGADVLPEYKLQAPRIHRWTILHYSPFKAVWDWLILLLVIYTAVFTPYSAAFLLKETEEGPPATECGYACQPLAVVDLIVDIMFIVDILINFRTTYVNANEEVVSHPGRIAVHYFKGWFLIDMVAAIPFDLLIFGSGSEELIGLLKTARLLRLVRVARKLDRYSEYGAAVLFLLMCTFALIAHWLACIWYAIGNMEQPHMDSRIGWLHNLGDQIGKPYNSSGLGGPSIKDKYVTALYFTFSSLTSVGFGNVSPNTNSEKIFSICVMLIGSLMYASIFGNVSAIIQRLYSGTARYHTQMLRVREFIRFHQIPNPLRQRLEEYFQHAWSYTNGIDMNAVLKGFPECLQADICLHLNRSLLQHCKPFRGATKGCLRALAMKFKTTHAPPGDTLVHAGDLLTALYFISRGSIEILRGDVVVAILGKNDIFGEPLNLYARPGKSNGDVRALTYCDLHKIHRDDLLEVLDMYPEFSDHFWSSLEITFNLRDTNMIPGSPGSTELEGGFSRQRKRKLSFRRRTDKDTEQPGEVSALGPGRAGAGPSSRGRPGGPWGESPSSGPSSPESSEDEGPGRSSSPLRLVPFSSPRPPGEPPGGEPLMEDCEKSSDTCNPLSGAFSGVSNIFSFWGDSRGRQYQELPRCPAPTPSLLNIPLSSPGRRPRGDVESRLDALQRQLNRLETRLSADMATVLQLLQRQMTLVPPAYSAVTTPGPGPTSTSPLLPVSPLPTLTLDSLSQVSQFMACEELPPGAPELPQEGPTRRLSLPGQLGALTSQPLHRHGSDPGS
row,Compound,"hERG current change (%, negative = inhibition) at 10uM"
1,Cc1cc(S(=O)(=O)N2CCN(c3c(C)cccc3C)CC2)ccc1F,-4.1%
2,Cc1c(C(=O)NC(C)c2ccccc2)c(-c2ccccc2)nn1-c1ccccc1 (centres unmarked),12.5%
3,COc1cccc(OC)c1C(=O)NC(=S)Nc1ccc(N2CCOCC2)c(Cl)c1,19.9%
4,CCC1CN(C(=O)NCc2ccc(C)cc2)c2cc(C)ccc2O1 (centres unmarked),-3.19%
5,CNc1ccc(/C=C(\C#N)C(=O)Nc2ccccn2)cc1[N+](=O)[O-],25.2%
6,CN1CCC(OC(=O)c2cc3cc(Cl)cc(Cl)c3oc2=O)CC1,-17.8%
7,Cc1cc(=O)oc2cc(NC(=O)c3ccccc3OC(F)F)ccc12,26.9%
8,CN(C)CCNC(=O)Cn1nc(C(F)F)cc1C1CC1,-1.27%
9,Cc1nc(-c2cccs2)sc1C(=O)NN,6.49%
10,COc1ccc(C(=O)N(CC2CCCO2)C(C(=O)NCCC(C)C)c2ccc(C)cc2)cc1OC (centres unmarked),-9.86%
11,Cc1ccc(S(=O)(=O)c2cc3c(=O)n4cccc(C)c4nc3n(Cc3ccncc3)c2=N)cc1,-40.8%
12,COc1ccc(NC(=O)CSCC(=O)N(C)CC(=O)Nc2c(C)cccc2C)cc1,-0.574%
13,O=C(NC1CCS(=O)(=O)C1)C1C2CC3CC(C2)CC1C3 (centres unmarked),20.1%
14,CN(C(=O)COc1ccccc1)c1nnc(-c2ccncc2)s1,-9.98%
15,CCOC(=O)C1=C(c2ccccc2)Nc2ncnn2C1c1cc(OC)ccc1OC (centres unmarked),-7.05%
16,CC(=O)Nc1ccc(NC(=O)C(C)Sc2nc3nc(C)cc(C)n3n2)cc1 (centres unmarked),7.98%
17,CC[N+](CC)(CC)CC(=O)Nc1c(C)cccc1C.[Br-],13.4%
18,COCCSc1ccccc1C(=O)Nc1ccc(Cl)cc1,-12%
19,[O-]/C(=C(\C(=S)Nc1ccc(SC(F)F)cc1)[n+]1ccccc1)c1cc(Cl)ccc1Cl,1.83%
20,CC1Cc2cc(S(=O)(=O)N3CCC(C(=O)N(C)Cc4ccco4)CC3)ccc2N1C(=O)C1CCC1 (centres unmarked),-17.2%
21,COc1cccc(NC(=O)c2sc3nc(N4CCOCC4)c4c(c3c2N)CCCC4)c1,21.1%
22,Cc1ccc(C(=O)NNc2cc(=O)n(C)c(=O)n2C)cc1C,10.4%

row,Compound,"hERG current change (%, negative = inhibition) at 10uM"
1,Cc1ccc(C(=O)C2C(c3ccc(-c4ccccc4[N+](=O)[O-])o3)NC(=O)NC2(O)C(F)(F)F)cc1 (centres unmarked),-10%
2,Cc1ccc(CN2C(=O)c3ccccc3Sc3ccc(C(=O)NCCN4CCOCC4)cc32)cc1,-15.2%
3,CC(=O)c1cccc(NC(=O)c2ccc(Br)o2)c1,-1.49%
4,COc1ccc(-c2cc(C(=O)N3CCN(S(=O)(=O)c4ccccc4)CC3)[nH]n2)cc1,8.23%
5,Cc1nc(=O)c(-c2ccccc2)c(C)n1CCCCCC(=O)O,10.4%
6,CC(=O)c1ccc(OCCCC(=O)NCCc2ccccc2)cc1,5.12%
7,Cc1ccc(C(=O)N/N=C/c2ccc(-c3cccc(Cl)c3)o2)cn1,-27.8%
8,COc1cc2ccccc2cc1C(=O)NCC(c1cccs1)N(C)C (centres unmarked),-27.6%
9,Cc1cnn(C(=S)NCc2ccco2)c1,5.8%
10,O=C(N/C(=C\c1cccnc1)C(=O)N1CCCCC1)c1cccc(Br)c1,2.68%
11,O=C(NCCN1CCOCC1)c1csc2c1CCCCC2,5.21%
12,Cc1cc(-n2c(C)cc(C(=O)CN3C(=O)NC4(CCCC4)C3=O)c2C)no1,-12.9%
13,Cc1ccc(C)c(Cn2c(O)c(N=NC(=S)Nc3ccccc3F)c3ccccc32)c1,9.52%
14,COc1ccc(C2SC[C@@H](C(=O)O)N2C(C)=O)cc1 (some centres unmarked),2.53%
15,O=C(c1cc(-c2ccc(Cl)cc2)on1)N1CCCCCC1,2.79%
16,Cc1ccc(C(=O)N/C(=C\c2sccc2C)C(=O)NCc2ccncc2)cc1,-30.5%
17,O=C(NCCN1CCOCC1)c1cc(-c2ccc(Br)cc2)on1,-22%
18,COc1ccc(-c2noc(CNS(=O)(=O)c3ccccc3)n2)cc1,5.08%
19,COc1ccc(C2CN=NC23CCCc2ccccc2C3=O)cc1 (centres unmarked),0.823%
20,CN1C2Cc3c(n(C)c4ccccc34)C1CC=C2CO (centres unmarked),12.1%
21,C1CCN=C(Nc2nc3c(s2)CCCC3)CC1,-16.3%
22,Cc1nn(C)cc1C(C(=O)NC1CCCCC1)N(C(=O)Cc1cccs1)c1ccc(C(C)C)cc1 (centres unmarked),-31.7%

# — publication PMC4336329 (PLoS ONE, 2015)
